# Test results from the supplement of paper PMC3334620.
# In all, about 33,000 sequences were measured (“E-score (-0.5 to 0.5)”: median about -0.035, highest 2% from about 0.34 on). This is one part of the list.
# Target: T1, Mot3 (UniProt P54785)
# T1 sequence: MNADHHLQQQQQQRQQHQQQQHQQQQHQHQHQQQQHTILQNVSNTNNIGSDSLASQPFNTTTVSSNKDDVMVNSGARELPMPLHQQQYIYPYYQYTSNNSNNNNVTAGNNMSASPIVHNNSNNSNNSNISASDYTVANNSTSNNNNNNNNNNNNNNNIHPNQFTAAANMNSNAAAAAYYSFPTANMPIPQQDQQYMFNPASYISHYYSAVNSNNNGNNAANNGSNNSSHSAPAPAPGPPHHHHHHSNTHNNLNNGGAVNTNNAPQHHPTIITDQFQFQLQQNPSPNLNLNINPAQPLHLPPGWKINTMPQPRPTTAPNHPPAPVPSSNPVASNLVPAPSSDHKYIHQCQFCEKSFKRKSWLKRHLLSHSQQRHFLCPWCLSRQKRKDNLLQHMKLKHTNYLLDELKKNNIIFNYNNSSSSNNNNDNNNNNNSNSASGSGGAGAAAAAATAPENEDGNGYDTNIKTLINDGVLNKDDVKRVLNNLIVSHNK
# Test: PBM E-score (8-mer binding enrichment) (E-score (-0.5 to 0.5)); higher = stronger / more preferred TF binding; most listed sequences are background and not binding sites
# Conditions: protein concentration: 200 nM; construct: GST-full length
# Outline: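 Universal all-10-mer Agilent arrays, double-stranded by primer extension on fresh or once-stripped slides, were probed with about 100-200 nM GST-tagged yeast transcription factors made by PURExpress. Fluorescent anti-GST detected bound protein, and masliner normalised the scans. E-scores from the Universal PBM Analysis Suite were given to each ungapped eight-base word pooled with its reverse complement.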
row,Sequence,PBM E-score
1,TATGCTCA,0.108
2,ATGTCCAA,0.0425
3,AGTAGTCG,0.0661
4,CCCAACCA,-0.0498
5,ACAGGTTA,0.155
6,ATTCAAAC,0.12
7,ACGGGAGA,-0.0875
8,AATTTTAT,0.0903
9,ACCAATGA,-0.0605
10,CACCATTC,-0.0923
11,AGGAGTAC,0.171
12,AATAAGAG,-0.137
13,CCCAAGGG,-0.379
14,GTGACGAA,-0.104
15,ACCGGGAC,-0.156
16,AGTCCGAA,-0.0534
17,ATAGTTGG,-0.162
18,GATATTGC,-0.0968
19,CCCCACCG,-0.337
20,GATAATAA,-0.0982
21,CGGAAGTA,-0.114
22,CGGGCATC,-0.287
23,CGCTAAAC,0.0334
24,CAGTAAGC,-0.142
25,ATGCCCAG,0.0604

row,Sequence,PBM E-score
1,CCGTAGAG,-0.309
2,GCCGAAGC,-0.267
3,AGGTGCCG,-0.046
4,AATTCATC,0.0469
5,GTTCACCA,0.00023
6,GAAAACCC,0.0202
7,GCGAAGAC,-0.2
8,CGTTCTTC,-0.0469
9,AGCCCCAG,-0.255
10,AATGAGCA,-0.132
11,ACCCGCTG,0.0394
12,CCCCGGCG,-0.196
13,AACGGGTG,-0.0602
14,CTCCGACC,-0.297
15,AACACTCC,0.0705
16,AAAGCTCC,-0.102
17,ATCCGCAA,-0.0584
18,CTCTTGCC,0.236
19,AACGTAGA,0.161
20,AGCTAAGC,-0.132
21,CAACTCCG,-0.279
22,TATAAGAA,-0.036
23,CGGGTGAG,-0.333
24,AATTTGTC,-0.0857
25,ATGCTCTA,-0.00028

row,Sequence,PBM E-score
1,TCAAAACA,0.205
2,CTTTTCGC,0.124
3,TCCGACAA,0.0252
4,CCTGCCAC,0.00164
5,ACTAGATG,-0.0217
6,CGGTGTCA,-0.029
7,CTTATAAG,-0.149
8,GAATGAAA,0.0726
9,CATTCGAA,0.134
10,ATGGTCTG,-0.134
11,GATGTAAC,0.175
12,GATGGGAC,-0.287
13,ATTCGTTG,0.0945
14,ATATTTCG,0.0141
15,AAGTATGC,0.00412
16,GCTTACCC,-0.351
17,TCACTCAA,-0.163
18,AAACGGGC,0.0596
19,ATGCCGTC,-0.0588
20,GCTTAATA,-0.171
21,TACGAAGA,0.0468
22,AGCTTACT,-0.0685
23,CAAGAGTG,-0.0522
24,CGTCAACA,0.165
25,AGCTTAGA,0.0556

row,Sequence,PBM E-score
1,AGGTGATA,-0.0326
2,CCAGAAAG,0.0871
3,CACCCGGG,-0.205
4,ACATATTG,0.0654
5,AAGGCAGC,0.276
6,CCTGTCCG,0.099
7,CGGGAGCC,-0.311
8,GTGTAGCA,0.168
9,ACCCAAAG,-0.0176
10,GGAAGGCC,-0.214
11,GTGCAAAC,0.0488
12,CCTGCTTC,-0.00779
13,CATATGCA,-0.0842
14,CATAATGA,0.0358
15,GGGCCCGA,-0.144
16,ATTCGGAG,-0.0693
17,CCTTGTAG,0.311
18,AGCTCTTC,-0.103
19,ATCGACTG,-0.268
20,TATTTACA,0.386
21,CTCCCCCC,-0.269
22,CTCTCAAG,-0.255
23,ATTGTGCA,-0.0597
24,GAAGTCAC,0.0721
25,AGGCACCC,0.491

row,Sequence,PBM E-score
1,CCGGGCAC,0.0258
2,ATCAATCG,0.106
3,CAGCAACA,0.112
4,CGATGGTC,-0.213
5,CTTCTTGC,0.242
6,ACGCCCCA,-0.128
7,CGGCGGAC,-0.165
8,CGCCAGCC,-0.187
9,ACACTGGC,0.00843
10,GGGAAGCA,-0.178
11,ACAGTTCC,0.153
12,AGTATAGA,-0.0939
13,AATGTACG,0.125
14,AAGACAAT,-0.0682
15,CCTTCTAC,0.222
16,GTGCTTCA,-0.048
17,CGCGGCCG,-0.272
18,AATGCCCA,-0.0213
19,ACTTGGGG,-0.134
20,CCAGAGAA,-0.0675
21,GCAACTGC,0.0618
22,ACAATAAG,0.0916
23,CAAAAAAC,0.193
24,GACAAACC,-0.00892
25,ATCTCGGC,-0.296

row,Sequence,PBM E-score
1,GCCCATTA,0.0591
2,TACAGAGA,-0.0215
3,CGTTCCAG,-0.227
4,ACGAGTCA,-0.0846
5,AAATGTAC,0.227
6,CATAATTC,0.0789
7,CGTCTTCA,-0.167
8,ACGGGTGA,-0.137
9,GCCCACGC,-0.263
10,CGAAGAAA,-0.0351
11,TAAACTAA,0.149
12,AGTGATCC,-0.0682
13,GCTGTTTA,-0.0345
14,TGCCGGAA,0.0304
15,AAATTCCG,-0.0878
16,GATCCACA,-0.0333
17,AGCCGGTC,-0.171
18,CAGAATGC,-0.195
19,CCTCTCCA,-0.126
20,TCACACCA,-0.0793
21,GACGACTA,0.112
22,ACACTATC,-0.121
23,CGTAGTGC,-0.09
24,CCGAGCAA,-0.194
25,CAGATAGA,-0.27

row,Sequence,PBM E-score
1,GGAAGCCA,-0.322
2,CCGTGGTC,-0.151
3,CCGCACCA,-0.255
4,GATATGCC,-0.169
5,CGAGAACA,-0.0594
6,CAATTTAC,0.216
7,GTCTTAAC,0.208
8,CCCCAGTA,-0.171
9,CCGGGAGA,-0.209
10,CCAAGAGC,-0.316
11,ATAGGCTC,0.207
12,CCGAAACG,-0.117
13,CGGGACAA,-0.123
14,AATTACAT,0.419
15,GGTCACTA,-0.14
16,ATTTGAGG,-0.0694
17,GTTGGTGA,0.00088
18,ACATGAAA,0.265
19,CATATGGC,-0.2
20,CAGATGGC,-0.145
21,GATGTAGA,0.195
22,ATTCGGAC,0.0425
